Data as given in patent US20210379195A1, “METHODS FOR ALLOGENEIC HEMATOPOIETIC STEM CELL TRANSPLANTATION” (Magenta Therapeutics, Inc., priority 2018, published 2021).

Target: CD117 (Homo sapiens, UniProt P10721)
Assay: In vitro stem cell factor (SCF)-dependent cell proliferation assay (neutral vs antagonist)
Assay type: cell-based
Design: endogenous in cells; host or cells: CD34+ cells dependent on SCF
Excerpt: Neutral antibodies can be identified using, for example, an in in vitro stem cell factor (SCF)-dependent cell proliferation assay. In an SCF dependent cell proliferation assay, a neutral CD117 antibody will not kill CD34+ cells that are dependent on SCF to divide, as a neutral antibody will not block SCF from binding to CD117 such as to inhibit CD117 activity.

Sequence of CD117 (P10721 26-976): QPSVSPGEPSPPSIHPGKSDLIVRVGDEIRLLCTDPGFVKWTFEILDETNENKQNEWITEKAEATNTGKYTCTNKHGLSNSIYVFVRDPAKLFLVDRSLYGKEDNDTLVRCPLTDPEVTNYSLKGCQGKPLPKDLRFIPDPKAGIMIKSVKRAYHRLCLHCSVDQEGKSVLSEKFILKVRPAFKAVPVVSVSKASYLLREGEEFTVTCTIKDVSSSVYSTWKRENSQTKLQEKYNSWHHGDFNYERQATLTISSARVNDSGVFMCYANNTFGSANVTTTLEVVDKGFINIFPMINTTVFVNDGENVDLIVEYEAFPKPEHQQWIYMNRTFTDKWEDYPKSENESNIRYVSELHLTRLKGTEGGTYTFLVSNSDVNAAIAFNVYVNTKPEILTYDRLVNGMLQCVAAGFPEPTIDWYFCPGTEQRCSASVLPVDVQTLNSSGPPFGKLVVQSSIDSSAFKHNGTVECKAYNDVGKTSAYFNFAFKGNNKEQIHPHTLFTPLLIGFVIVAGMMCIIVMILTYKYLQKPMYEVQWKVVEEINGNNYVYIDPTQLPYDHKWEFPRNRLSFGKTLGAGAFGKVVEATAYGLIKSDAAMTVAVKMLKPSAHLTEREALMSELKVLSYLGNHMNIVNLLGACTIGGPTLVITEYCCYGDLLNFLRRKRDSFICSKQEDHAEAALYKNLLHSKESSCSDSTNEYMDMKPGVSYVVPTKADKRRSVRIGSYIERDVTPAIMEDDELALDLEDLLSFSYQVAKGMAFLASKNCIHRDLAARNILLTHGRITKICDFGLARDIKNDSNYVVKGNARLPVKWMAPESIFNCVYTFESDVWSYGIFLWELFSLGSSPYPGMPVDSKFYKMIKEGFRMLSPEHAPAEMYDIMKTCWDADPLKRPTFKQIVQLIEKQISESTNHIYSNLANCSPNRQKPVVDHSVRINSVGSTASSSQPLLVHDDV

Molecule	effect on CD117 activity (neutral or antagonist antibody)
Ab58: anti-CD117 antibody, VH SEQ ID NO: 59, VL SEQ ID NO: 60 (antibody, V domains shown) VH: [about 100 residues not written out]GPPTYHTNYYYMDVWGKGTTVTVSS VL: DIQMTQSPSSVSASVGDRVTITCRASQGISSWLAWYQQKPGKAPKLLIYAASSLQSGVPSRFSGSGSGTDFTLTISSLQPEDFATYYCQQTNSFPYTFGGGTKVEIK	neutral
Ab66: anti-CD117 antibody, VH SEQ ID NO: 79, VL SEQ ID NO: 80 (antibody, V domains shown) VH: EVQLVESGGGLVQPGGSLRLSCAASGFTFSDHYMDWVRQAPGKGLEWVGRTRNKASSYTTEYAASVKGRFTISRDDSKNSLYLQMNSLKTEDTAVYYCAREPKYWIDFDLWGRGTLVTVSS VL: [about 100 residues not written out]FGGGTKVEIK	neutral
Ab68: anti-CD117 antibody, VH SEQ ID NO: 89, VL SEQ ID NO: 90 (antibody, V domains shown) VH: EVQLVESGGGLVQPGRSLRLSCTASGFTFSDHDMNWVRQAPGKGLEWVGRTRNAAGSYTTEYAASVKGRFTISRDDSKNSLYLQMNSLKTEDTAVYYCAREPKYWIDFDLWGRGTLVTVSS VL: [about 100 residues not written out]FGGGTKVEIK	neutral
Ab69: anti-CD117 antibody, VH SEQ ID NO: 99, VL SEQ ID NO: 100 (antibody, V domains shown) VH: EVQLVESGGGLVQPGGSLRLSCAASGFTFVDHDMDWVRQAPGKGLEWVGRTRNKLGSYTTEYAASVKGRFTISRDDSKNSLYLQMNSLKTEDTAVYYCAREPKYWIDFDLWGRGTLVTVSS VL: [about 100 residues not written out]FGGGTKVEIK	neutral
Ab67: anti-CD117 antibody, VH SEQ ID NO: 9, VL SEQ ID NO: 10 (antibody, V domains shown) VH: EVQLVESGGGLVQPGGSLRLSCAASGFTFSDADMDWVRQAPGKGLEWVGRTRNKAGSYTTEYAASVKGRFTISRDDSKNSLYLQMNSLKTEDTAVYYCAREPKYWIDFDLWGRGTLVTVSS VL: [about 100 residues not written out]FGGGTKVEIK	neutral
